The source of these data is the supplement of paper PMC3334620.

In all, about 33,000 sequences were measured (“E-score (-0.5 to 0.5)”: median about -0.016, highest 2% from about 0.31 on). The list shows a part of the results.

This assay deals with Cst6 (UniProt P40535). Description: PBM E-score (8-mer binding enrichment) (E-score (-0.5 to 0.5)); higher = stronger / more preferred TF binding; most listed sequences are background and not binding sites. To be noted: protein concentration: 200 nM; construct: GST-DNA-binding domain. On the procedure: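 Universal 'all 10-mer' protein binding microarrays (Agilent AMADID 015681) probed with GST-tagged S. cerevisiae TFs (full-length or DBD) made by in vitro transcription/translation (PURExpress), about 100-200 nM. Bound TF was detected with fluorescent anti-GST. Each ungapped 8-mer (which stands for itself and its reverse complement) is scored by the PBM enrichment score (E-score), a modified Wilcoxon-Mann-Whitney statistic from -0.5 to +0.5, computed with the Universal PBM Analysis Suite. Scale: above 0.35 generally sequence-specific binding.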
On to GATAAGCA, for which the “PBM E-score” value was 0.115.

In the case of ACGCAGCA, the “PBM E-score” value is -0.0415.

For AGGCACAC, the “PBM E-score” value was -0.139.

For the sequence CATCTGAG, the “PBM E-score” value was -0.0474.

Regarding AGGGGTGC, the “PBM E-score” value is -0.184.

As for CGATACTA, the “PBM E-score” value came to 0.1.

For AGCTTCGG, the “PBM E-score” value was -0.245.

With ATGATTGC, the “PBM E-score” value was determined as 0.24.

As to CACTATCG, the “PBM E-score” value is -0.00469.

On to TGATGGCA, for which the “PBM E-score” value was determined as 0.0289.

Consider CTCCGCAA, for which the “PBM E-score” value was -0.23.

Take AGAAGATA: the “PBM E-score” value is 0.133.

On to CGTTTATA, for which the “PBM E-score” value was 0.248.

Take CCATTAAA: the “PBM E-score” value was 0.0506.

For the sequence CACTGGCC, the “PBM E-score” value was -0.15.

Regarding CCTCGAGG, the “PBM E-score” value stood at 0.104.

Regarding CTTCCGGC, the “PBM E-score” value was -0.192.

Take ACCCTGAG: the “PBM E-score” value is -0.163.

As to ATAACTAG, the “PBM E-score” value is 0.0926.

Take GACGCACA: the “PBM E-score” value came out at 0.183.

For the sequence CTATGATC, the “PBM E-score” value amounted to 0.0289.

Consider ACACCTCA, for which the “PBM E-score” value is -0.0121.

Consider ACCGGCTC, for which the “PBM E-score” value is -0.201.

As to ACTCTCGG, the “PBM E-score” value was -0.0365.

As to TCCGAAAA, the “PBM E-score” value is -0.0917.

Consider GAATCGGC, for which the “PBM E-score” value was 0.115.

CAAAGACC: the “PBM E-score” value is -0.00163.

With CACCCATA, the “PBM E-score” value is -0.11.

With GATGGACA, the “PBM E-score” value was 0.00149.

Consider CCAGGTTA, for which the “PBM E-score” value is -0.157.

As for GTTCAAAA, the “PBM E-score” value is 0.0819.

In the case of GTGAGAGA, the “PBM E-score” value stood at 0.0107.

Turning to ACGTGACC, the “PBM E-score” value was found to be 0.0221.

As for GAATACCC, the “PBM E-score” value is -0.164.

Turning to CTTTATAC, the “PBM E-score” value came to 0.0705.

Regarding ACAAGTAA, the “PBM E-score” value is -0.0276.

With CGCCAGAC, the “PBM E-score” value was -0.107.

Consider CAGACTCC, for which the “PBM E-score” value was -0.167.

For ACTAATCT, the “PBM E-score” value is 0.0267.

For AGGCTGGA, the “PBM E-score” value was -0.301.

In the case of CATCCGCC, the “PBM E-score” value was -0.0652.

In the case of ACACGATC, the “PBM E-score” value amounted to 0.0915.

Consider CCGTCATC, for which the “PBM E-score” value worked out at 0.385.

Turning to ATGATTCA, the “PBM E-score” value came out at 0.0717.

In the case of AGATTAGA, the “PBM E-score” value is -0.00837.

For the sequence AAGTTCGT, the “PBM E-score” value was -0.00263.

With GAGCTGCA, the “PBM E-score” value is -0.0817.

In the case of ATGACCTA, the “PBM E-score” value came to 0.346.

CGCGCCCC: the “PBM E-score” value was -0.0815.

As to ACCGCTTG, the “PBM E-score” value is -0.0497.

CAACGGGA: the “PBM E-score” value was 0.0126.

Regarding CGACATCC, the “PBM E-score” value is -0.0566.

For the sequence AGATTTCC, the “PBM E-score” value is -0.0185.

Consider ACGTTCTA, for which the “PBM E-score” value was -0.00984.

With AAGGCAAA, the “PBM E-score” value was found to be 0.166.

In the case of CTGGTCTA, the “PBM E-score” value was -0.156.

Turning to GCCGACTA, the “PBM E-score” value was -0.0181.

AGTAGAAT: the “PBM E-score” value worked out at 0.249.

In the case of TACGAGAA, the “PBM E-score” value was found to be 0.00123.

Regarding CCGCATCG, the “PBM E-score” value was -0.0611.

As for TCGCGAAA, the “PBM E-score” value was determined as 0.0515.

Consider TGAAATAA, for which the “PBM E-score” value worked out at 0.221.

Regarding CTAAAATC, the “PBM E-score” value amounted to 0.0537.

For the sequence GCTTTTAA, the “PBM E-score” value was -0.0378.

Turning to AACAGGAG, the “PBM E-score” value is -0.0951.

As to CGCGTGAC, the “PBM E-score” value is 0.16.

Regarding GTGGTACA, the “PBM E-score” value is -0.122.

Consider AGACGAGC, for which the “PBM E-score” value is -0.203.

Turning to GCCTCCAA, the “PBM E-score” value was -0.0808.

For GCCGGAGA, the “PBM E-score” value was -0.102.

In the case of CTGCGCTA, the “PBM E-score” value was -0.26.

With CCATGACG, the “PBM E-score” value is 0.457.

As to GTAGCTGA, the “PBM E-score” value was -0.0514.

For GCACAGAC, the “PBM E-score” value came to 0.0277.

For CGAAGGTA, the “PBM E-score” value was determined as 0.0246.

Turning to ACATTTGG, the “PBM E-score” value was -0.0495.

For ATAAAGGA, the “PBM E-score” value was -0.219.

In the case of AAAAGAAC, the “PBM E-score” value turned out to be 0.0754.

Regarding CTCGATAA, the “PBM E-score” value is 0.0901.

CCCCGTCG: the “PBM E-score” value is -0.187.

Take AGACACAT: the “PBM E-score” value was -0.114.

In the case of CGGTATGC, the “PBM E-score” value is -0.111.

As to ACGGCATG, the “PBM E-score” value came to 0.126.

For the sequence CACCACGA, the “PBM E-score” value worked out at 0.148.

Consider AGACACAG, for which the “PBM E-score” value is -0.115.

On to CAGTATGA, for which the “PBM E-score” value was found to be 0.159.

On to AAAATAAT, for which the “PBM E-score” value is 0.302.

AGTAGCGA: the “PBM E-score” value was -0.0145.

Consider AGTCCGGA, for which the “PBM E-score” value is -0.11.

For the sequence CCAATAAA, the “PBM E-score” value worked out at 0.158.

GACCTGTA: the “PBM E-score” value was -0.0339.

On to CTGGTTGA, for which the “PBM E-score” value is -0.235.

As to GGAAGCTA, the “PBM E-score” value is -0.156.

As for GAAAGTGC, the “PBM E-score” value was -0.152.

Consider CTTTAAGA, for which the “PBM E-score” value was 0.149.

With GAGCGACA, the “PBM E-score” value is -0.0394.

With GCTGAGCA, the “PBM E-score” value is -0.0607.

Take GCCCGCCC: the “PBM E-score” value is -0.158.

For GTTAACCA, the “PBM E-score” value worked out at 0.105.

Take CACAGTAA: the “PBM E-score” value worked out at 0.243.

GTGCAAGA: the “PBM E-score” value turned out to be 0.135.

For ACTCACAT, the “PBM E-score” value is 0.057.

With ATTATTCC, the “PBM E-score” value turned out to be 0.115.

Consider ACCGTTCA, for which the “PBM E-score” value was -0.132.

In the case of ACGCAGAC, the “PBM E-score” value is -0.048.

Regarding ATGGGTGG, the “PBM E-score” value was 0.0397.

Regarding ATGTGACG, the “PBM E-score” value came out at 0.433.

Regarding CGTATACG, the “PBM E-score” value amounted to 0.129.

In the case of AACTAGAC, the “PBM E-score” value worked out at 0.241.
